# Assay results reported in PubChem BioAssay AID1768 (National Center for Advancing Translational Sciences (NCATS), 2009).
# Out of some 270,000 compounds screened, about 620 (0.23%) were called active. Inconclusive means that the source gave no clear call. Such entries were picked first, then a sample of the others. Calls follow the shape of the dose curve; as a rule, active = well fitted inhibition curve with a large enough effect in the polarisation, with a control signal flat (not every such curve was filed as active); inconclusive = small, poorly fitted or top-dose-only effect, or effect the other way, or a change in a side signal; inactive = no such curve, though single readings can be large or run the other way; the % refers to the polarisation. A potency beside an inconclusive call is a rough fit, not a confirmed value. A note “side channel” means that the fit belongs to a control or component signal, not to the main read-out.
# Target: Menin (Homo sapiens) (UniProt O00255)
# Sequence of UniProt O00255 (O00255 whole entry, looked up): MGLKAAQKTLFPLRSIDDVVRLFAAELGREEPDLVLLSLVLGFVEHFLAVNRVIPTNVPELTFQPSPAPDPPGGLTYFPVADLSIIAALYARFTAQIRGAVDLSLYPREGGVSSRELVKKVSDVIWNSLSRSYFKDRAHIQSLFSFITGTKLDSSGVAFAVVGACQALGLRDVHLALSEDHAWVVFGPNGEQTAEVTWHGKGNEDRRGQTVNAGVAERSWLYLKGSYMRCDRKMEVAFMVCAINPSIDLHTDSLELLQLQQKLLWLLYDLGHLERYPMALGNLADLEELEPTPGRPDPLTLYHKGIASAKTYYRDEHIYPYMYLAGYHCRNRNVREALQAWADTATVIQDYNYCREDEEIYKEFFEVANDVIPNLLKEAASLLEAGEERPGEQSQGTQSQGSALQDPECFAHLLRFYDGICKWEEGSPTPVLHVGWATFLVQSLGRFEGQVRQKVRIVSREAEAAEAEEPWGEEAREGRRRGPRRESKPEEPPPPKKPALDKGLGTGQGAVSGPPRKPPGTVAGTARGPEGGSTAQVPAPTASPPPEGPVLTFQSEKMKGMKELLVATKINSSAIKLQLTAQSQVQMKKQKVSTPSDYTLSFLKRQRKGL
# Experiment: qHTS Assay for Inhibitors Targeting the Menin-MLL Interaction in MLL Related Leukemias: Competition With Texas Red Labeled MLL-derived Mutant Peptide; as to FP activity change, negative = inhibition: % of control where 0% means no effect
# Details: fluorescence polarization; FP activity change, negative = inhibition: at 61.6 µM (top of the series)
# Potency is read from the fitted curve at half-maximal effect; tags tell the direction and shape of the fitted curve or compound fluorescence and quenching.
SMILES,Potency,"FP activity change, negative = inhibition"
Nc1ccc2c(c1)N=[N+]([O-])c1cc(N)ccc1C2,"inconclusive: 14.1 µM [fluorescent, side channel, partial curve, poor fit]",
CCCOc1ccccc1/C=C1\SC(N)=NC1=O,"inconclusive: 10 µM [inhibitor, partial curve]",
C=CCc1ccc(OCCOCCNCCOC)c(OC)c1,"inconclusive: 5.01 µM [inhibitor, partial curve]",
O=C(COC(=O)c1cc(Br)ccc1O)Nc1cc(S(=O)(=O)N2CCCC2)ccc1Cl,"inconclusive: 39.8 µM [inhibitor, single point]",
COc1ccc(CNc2nc3c(c(=O)n(Cc4ccc(Br)cc4)c(=O)n3C)n2C)cc1,"inconclusive: 8.91 µM [quencher, side channel, full curve]",
Cc1cc(Cl)ccc1OC(C)C(=O)Nc1ccc(S(=O)(=O)Nc2cnc3ccccc3n2)cc1 (stereo unspecified),"inconclusive: 14.1 µM [quencher, side channel, partial curve]",
COc1cc(/C=C/C(=O)OCC(=O)Nc2sc3c(c2C#N)CCC(C)C3)ccc1OCC#N (stereo unspecified),"inconclusive: 17.8 µM [quencher, side channel, partial curve]",
COCc1cc(CN2CCN(C)CC2)c(O)c2ncccc12,,inactive: -18.4%
COc1ccccc1-n1c(N)c(C(=O)NCC2CCCO2)c2nc3ccccc3nc21 (stereo unspecified),,inactive: 9.51%
O=[N+]([O-])c1ccccc1Nc1c2ccccc2nc2ccccc12,"inconclusive: 14.1 µM [quencher, side channel, partial curve]",
COc1ccc(CNCc2ccc3c(c2)OCO3)cc1Br,"inconclusive: 20 µM [fluorescent, side channel, partial curve]",
Cc1ccc(C)c(N2CCN(C(=O)C3CCN(c4nc(C)cc(C)n4)CC3)CC2)c1,"inconclusive: 39.8 µM [inhibitor, single point]",
O=C(CCS(=O)(=O)c1ccc(Br)cc1)N1CCN(Cc2ccccc2)CC1,"inconclusive: 3.16 µM [inhibitor, full curve]",
CCC(C)NC(=O)CSc1nc2c(sc(=S)n2-c2cc(Cl)ccc2OC)c(=O)[nH]1 (stereo unspecified),"inconclusive: 14.1 µM [quencher, side channel, partial curve]",
C#CCN1C(=O)S/C(=C/C=C/c2ccc(N(C)C)cc2)C1=O,"inconclusive: 12.6 µM [fluorescent, side channel, partial curve]",
CC[C@@H]1C(c2cccc(C)c2)=NN(c2ccc(Br)cc2)[C@H]1C(=O)N1CCOC1=O,"inconclusive: 7.08 µM [quencher, side channel, full curve]",
CCN(CC)CCNc1ccnc2cc(Cl)ccc12,,inactive: -13%
Cc1ccc(C(=O)NC(=S)Nc2nc(-c3cccc([N+](=O)[O-])c3)cs2)c(Cl)c1,"inconclusive: 14.1 µM [quencher, side channel, single point]",
NC(=O)c1ccc(NC(=O)CN2CCN(c3ccc(Cl)cc3)CC2)cc1,"inconclusive: 35.5 µM [fluorescent, side channel, single point]",

SMILES,Potency,"FP activity change, negative = inhibition"
COc1cc2c(cc1OC)C(c1ccc(-c3cc(Cl)ccc3Cl)o1)=NCC2,"inconclusive: 11.2 µM [fluorescent, side channel, partial curve]",
CCn1c2ccccc2c2cc(NC(=O)COC(=O)c3ccccc3Br)ccc21,"inconclusive: 11.2 µM [quencher, side channel, partial curve]",
CCOC(=O)C1CCN(C(=O)Cn2cc(C(=O)c3ccco3)c3ccccc32)CC1,"inconclusive: 39.8 µM [inhibitor, single point]",
COC(=O)/C=C\C(=O)Nc1cccc([N+](=O)[O-])c1,"inconclusive: 31.6 µM [quencher, side channel, partial curve]",
O=C(CCCN1C(=O)CCC1=O)Nc1cccc(C(F)(F)F)c1,"inconclusive: 20 µM [inhibitor, partial curve, poor fit]",
S=C(Nc1ccccc1)N1N=C(c2cccs2)CC1c1cccs1 (stereo unspecified),"inconclusive: 11.2 µM [inhibitor, partial curve]",
Cc1nn(C(C)C(=O)Nc2ccc3c(c2)OCO3)c(C)c1[N+](=O)[O-] (stereo unspecified),"inconclusive: 14.1 µM [quencher, side channel, partial curve]",
COc1cccc(NC(=O)CSc2nnc(NC(=O)C3CCC3)s2)c1,"inconclusive: 39.8 µM [quencher, side channel, single point]",
COc1ccc(/C=N/Nc2ncnc3sc4c(c23)CCCC4)cc1O,"inconclusive: 15.8 µM [quencher, side channel, partial curve]",
O=C(CCC(=O)N/N=C/c1cc(Cl)cc(Cl)c1O)NCc1ccccc1,"inconclusive: 28.2 µM [quencher, side channel, single point]",
NC(=O)c1cc(Br)cc(C2CCCCC2)c1O,"inconclusive: 22.4 µM [quencher, side channel, single point]",
N#CCCN1CCN(C(=S)c2ccc(-c3cccc(Cl)c3)o2)CC1,"inconclusive: 39.8 µM [quencher, side channel, single point]",
COC1=C/C(=C/c2c(N)n3cc(C)sc3nc2=O)C=CC1=O,"inconclusive: 25.1 µM [quencher, side channel, single point]",
CCc1ccccc1Nc1ncnc2ccccc12,"inconclusive: 2.82 µM [quencher, side channel, full curve, poor fit]",
O=C(O)CSc1cc(C(=O)c2ccccc2O)cn2c(=O)c3c(-c4ccccc4)csc3nc12,"inconclusive: 7.08 µM [quencher, side channel, partial curve]",
COCCn1c(=O)c(-c2cccs2)nc2cnc(OCc3ccccc3)nc21,,inactive: 18.1%
COc1ccnc(Oc2ccc3ccccc3c2)c1C#N,"inconclusive: 12.6 µM [inhibitor, partial curve]",
CN=c1scc(-c2ccco2)n1/N=C/c1ccc(O)c(O)c1,"inconclusive: 11.2 µM [quencher, side channel, partial curve]",
CCOc1ccc(CN2CCN(Cc3ccc4cc(F)ccc4n3)CC2CCO)cc1 (stereo unspecified),"inconclusive: 14.1 µM [fluorescent, side channel, partial curve, poor fit]",

SMILES,Potency,"FP activity change, negative = inhibition"
N#C/C(=C\c1ccc(-c2cccc(C(F)(F)F)c2)o1)C(=O)Nn1cnnc1,"inconclusive: 39.8 µM [quencher, side channel, single point]",
CCc1nnc(NC(=O)CCNC(=O)c2ccco2)s1,"inconclusive: 39.8 µM [inhibitor, partial curve]",
CN(CC1CCCO1)S(=O)(=O)c1ccc(C(=O)Nc2nc(-c3ccccn3)cs2)cc1 (stereo unspecified),,inactive: 5.24%
Clc1ccc(-c2ccnc(-n3cccc3)n2)s1,"inconclusive: 11.2 µM [quencher, side channel, partial curve]",
CC(=O)NCCn1c(SCc2ccc(C)cc2C)nc2ccccc2c1=O,"inconclusive: 11.2 µM [fluorescent, side channel, partial curve]",
C[Si](C)(C)C#Cc1ccccc1NC(=S)Nc1ccccc1,"inconclusive: 44.7 µM [quencher, side channel, single point]",
O=C(Nc1ccc(NC(=O)c2ccco2)c(Cl)c1)c1cccc([N+](=O)[O-])c1,"inconclusive: 14.1 µM [quencher, side channel, partial curve]",
O=C(COC(=O)c1c2c(nc3ccccc13)/C(=C/c1cccc([N+](=O)[O-])c1)CCC2)NC1CCS(=O)(=O)C1 (stereo unspecified),"inconclusive: 10 µM [quencher, side channel, partial curve]",
Cc1sc(NC(=O)/C=C/c2ccc3c(c2)OCO3)nc1-c1ccccc1,"inconclusive: 39.8 µM [inhibitor, single point]",
COc1ccc(-c2nc(C)c(C(C)=O)n2O)cc1,"inconclusive: 3.55 µM [inhibitor, single point]",
CN(CC(=O)Nc1cccc(S(=O)(=O)NC2=NCCCCC2)c1)Cc1ccc(C(C)(C)C)cc1,"inconclusive: 11.2 µM [fluorescent, side channel, partial curve]",
Cc1cccc([C@@H]2[C@@H]3C(=O)N(Cc4ccccc4)C(=O)[C@@H]3[C@]3(Cc4ccc(Cl)cc4)C(=O)N(c4cccc(Br)c4)C(=O)N23)c1,"inconclusive: 15.8 µM [fluorescent, side channel, single point]",
NC(=S)Cc1nc(-c2ccc(Cl)cc2)cs1,"inconclusive: 7.08 µM [quencher, side channel, partial curve]",
CCC(CC)(CC(=O)Nc1cccc(/C=C/c2nc(C3CCC3)cs2)c1)C(=O)O,"inconclusive: 10 µM [quencher, side channel, partial curve]",
CCNC(=O)OCCC12CC3CC(CC(C3)C1)C2,"inconclusive: 7.08 µM [fluorescent, side channel, partial curve]",
COc1ccc2ccccc2c1/C=N/Nc1cccc(C(=O)O)c1,"inconclusive: 28.2 µM [quencher, side channel, partial curve]",
C/C(O)=C/c1nc2ccccc2[nH]c1=O,,inactive: -3.62%
Cc1coc2c(C)c3oc(=O)c(CCC(=O)NCc4ccccn4)c(C)c3cc12,"inconclusive: 39.8 µM [inhibitor, single point]",
